Measurements published in article PMC12820563.
Some of the results follow. The list includes weakly bound sequences.

biological target: T1, MBP-FoxP3dN (UniProt Q99JB6); assay: PD-seq (MBP pull-down with sequencing); settings: 20 mM Tris-HCl pH 7.5, 100 mM NaCl, 1.5 mM MgCl2, 0.4 uM protein, 0.1 uM dsDNA library, 30 min, room temperature, amylose pull-down; high values mean tight binding; double strand, one strand shown
T1 sequence: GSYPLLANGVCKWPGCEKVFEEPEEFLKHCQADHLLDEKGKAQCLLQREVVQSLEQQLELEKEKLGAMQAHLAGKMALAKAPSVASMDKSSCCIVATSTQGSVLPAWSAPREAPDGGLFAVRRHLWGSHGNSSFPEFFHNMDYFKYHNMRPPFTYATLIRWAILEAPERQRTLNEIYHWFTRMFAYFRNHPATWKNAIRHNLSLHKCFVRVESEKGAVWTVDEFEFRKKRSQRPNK

Sequence | binding signal (RPM ratio (pull-down/input))
GATGATTGTTCTCCCAGCTGATGAATTCCCCACATCGAGTAAACAAATTTTCCTAATCTTTCTGTTCAAGCGCCATCTAC | 0.323
GATGATTGTTCTCCCAGCTGATGAATTATACGAATCGAGTAAACAAATTTTCCTAATCTTTCTGTTCAAGCGCCATCTAC | 0.333
GATGATTGTTCTCCCAGCTGATGAATTTGCAGTGTCGAGTAAACAAATTTTCCTAATCTTTCTGTTCAAGCGCCATCTAC | 1.78
GATGATTGTTCTCCCAGCTGATGAATTAGTCTTCTCGAGTAAACAAATTTTCCTAATCTTTCTGTTCAAGCGCCATCTAC | 0.802
GATGATTGTTCTCCCAGCTGATGAATTCGAACTGTCGAGTAAACAAATTTTCCTAATCTTTCTGTTCAAGCGCCATCTAC | 0.317
GATGATTGTTCTCCCAGCTGATGAATTCAACGGTTCGAGTAAACAAATTTTCCTAATCTTTCTGTTCAAGCGCCATCTAC | 0.307
GATGATTGTTCTCCCAGCTGATGAATTAAATGAGTCGAGTAAACAAATTTTCCTAATCTTTCTGTTCAAGCGCCATCTAC | 0.419
GATGATTGTTCTCCCAGCTGATGAATTATCGGGTTCGAGTAAACAAATTTTCCTAATCTTTCTGTTCAAGCGCCATCTAC | 0.322
GATGATTGTTCTCCCAGCTGATGAATTCCCGTAATCGAGTAAACAAATTTTCCTAATCTTTCTGTTCAAGCGCCATCTAC | 0.495
GATGATTGTTCTCCCAGCTGATGAATTGTCTACCTCGAGTAAACAAATTTTCCTAATCTTTCTGTTCAAGCGCCATCTAC | 0.773
GATGATTGTTCTCCCAGCTGATGAATTACGACACTCGAGTAAACAAATTTTCCTAATCTTTCTGTTCAAGCGCCATCTAC | 1.76
GATGATTGTTCTCCCAGCTGATGAATTCACGATCTCGAGTAAACAAATTTTCCTAATCTTTCTGTTCAAGCGCCATCTAC | 0.275
GATGATTGTTCTCCCAGCTGATGAATTGCTTCGTTCGAGTAAACAAATTTTCCTAATCTTTCTGTTCAAGCGCCATCTAC | 0.539
GATGATTGTTCTCCCAGCTGATGAATTTGGCTGCTCGAGTAAACAAATTTTCCTAATCTTTCTGTTCAAGCGCCATCTAC | 0.601
GATGATTGTTCTCCCAGCTGATGAATTCTTGTTCTCGAGTAAACAAATTTTCCTAATCTTTCTGTTCAAGCGCCATCTAC | 0.508
GATGATTGTTCTCCCAGCTGATGAATTGAAAGAATCGAGTAAACAAATTTTCCTAATCTTTCTGTTCAAGCGCCATCTAC | 0.183
GATGATTGTTCTCCCAGCTGATGAATTTCACACATCGAGTAAACAAATTTTCCTAATCTTTCTGTTCAAGCGCCATCTAC | 0.41
GATGATTGTTCTCCCAGCTGATGAATTACGCCAATCGAGTAAACAAATTTTCCTAATCTTTCTGTTCAAGCGCCATCTAC | 0.835
GATGATTGTTCTCCCAGCTGATGAATTAGAAATCTCGAGTAAACAAATTTTCCTAATCTTTCTGTTCAAGCGCCATCTAC | 0.275
GATGATTGTTCTCCCAGCTGATGAATTATGGGAATCGAGTAAACAAATTTTCCTAATCTTTCTGTTCAAGCGCCATCTAC | 0.287
GATGATTGTTCTCCCAGCTGATGAATTGCCTGAGTCGAGTAAACAAATTTTCCTAATCTTTCTGTTCAAGCGCCATCTAC | 0.388

Sequence | binding signal (RPM ratio (pull-down/input))
GATGATTGTTCTCCCAGCTGATGAATTAGAAAGCTCGAGTAAACAAATTTTCCTAATCTTTCTGTTCAAGCGCCATCTAC | 0.264
GATGATTGTTCTCCCAGCTGATGAATTCTTATATTCGAGTAAACAAATTTTCCTAATCTTTCTGTTCAAGCGCCATCTAC | 0.409
GATGATTGTTCTCCCAGCTGATGAATTGATTGAATCGAGTAAACAAATTTTCCTAATCTTTCTGTTCAAGCGCCATCTAC | 0.339
GATGATTGTTCTCCCAGCTGATGAATTGCGGTATTCGAGTAAACAAATTTTCCTAATCTTTCTGTTCAAGCGCCATCTAC | 1.67
GATGATTGTTCTCCCAGCTGATGAATTCATGCGATCGAGTAAACAAATTTTCCTAATCTTTCTGTTCAAGCGCCATCTAC | 0.775
GATGATTGTTCTCCCAGCTGATGAATTCAGCGCTTCGAGTAAACAAATTTTCCTAATCTTTCTGTTCAAGCGCCATCTAC | 0.663
GATGATTGTTCTCCCAGCTGATGAATTGAACCCTTCGAGTAAACAAATTTTCCTAATCTTTCTGTTCAAGCGCCATCTAC | 0.284
GATGATTGTTCTCCCAGCTGATGAATTTGTGATTTCGAGTAAACAAATTTTCCTAATCTTTCTGTTCAAGCGCCATCTAC | 5.37
GATGATTGTTCTCCCAGCTGATGAATTGCTGTCTTCGAGTAAACAAATTTTCCTAATCTTTCTGTTCAAGCGCCATCTAC | 1.11
GATGATTGTTCTCCCAGCTGATGAATTAGGACGGTCGAGTAAACAAATTTTCCTAATCTTTCTGTTCAAGCGCCATCTAC | 0.222
GATGATTGTTCTCCCAGCTGATGAATTCCCCCACTCGAGTAAACAAATTTTCCTAATCTTTCTGTTCAAGCGCCATCTAC | 0.253
GATGATTGTTCTCCCAGCTGATGAATTCAACAGGTCGAGTAAACAAATTTTCCTAATCTTTCTGTTCAAGCGCCATCTAC | 0.252
GATGATTGTTCTCCCAGCTGATGAATTAATTGATTCGAGTAAACAAATTTTCCTAATCTTTCTGTTCAAGCGCCATCTAC | 2.02
GATGATTGTTCTCCCAGCTGATGAATTCCATTCATCGAGTAAACAAATTTTCCTAATCTTTCTGTTCAAGCGCCATCTAC | 0.496
GATGATTGTTCTCCCAGCTGATGAATTCTCGGTGTCGAGTAAACAAATTTTCCTAATCTTTCTGTTCAAGCGCCATCTAC | 0.364
GATGATTGTTCTCCCAGCTGATGAATTTCTGAACTCGAGTAAACAAATTTTCCTAATCTTTCTGTTCAAGCGCCATCTAC | 0.221
GATGATTGTTCTCCCAGCTGATGAATTTATAGCGTCGAGTAAACAAATTTTCCTAATCTTTCTGTTCAAGCGCCATCTAC | 1.26
GATGATTGTTCTCCCAGCTGATGAATTAGAAATATCGAGTAAACAAATTTTCCTAATCTTTCTGTTCAAGCGCCATCTAC | 0.341
GATGATTGTTCTCCCAGCTGATGAATTACACCAATCGAGTAAACAAATTTTCCTAATCTTTCTGTTCAAGCGCCATCTAC | 0.479
GATGATTGTTCTCCCAGCTGATGAATTCATTGTATCGAGTAAACAAATTTTCCTAATCTTTCTGTTCAAGCGCCATCTAC | 1.67
GATGATTGTTCTCCCAGCTGATGAATTCGGAACTTCGAGTAAACAAATTTTCCTAATCTTTCTGTTCAAGCGCCATCTAC | 0.23

Sequence | binding signal (RPM ratio (pull-down/input))
GATGATTGTTCTCCCAGCTGATGAATTTATTCTATCGAGTAAACAAATTTTCCTAATCTTTCTGTTCAAGCGCCATCTAC | 0.549
GATGATTGTTCTCCCAGCTGATGAATTGGTTCCCTCGAGTAAACAAATTTTCCTAATCTTTCTGTTCAAGCGCCATCTAC | 0.362
GATGATTGTTCTCCCAGCTGATGAATTCTTAAGGTCGAGTAAACAAATTTTCCTAATCTTTCTGTTCAAGCGCCATCTAC | 0.156
GATGATTGTTCTCCCAGCTGATGAATTTACGAGCTCGAGTAAACAAATTTTCCTAATCTTTCTGTTCAAGCGCCATCTAC | 0.335
GATGATTGTTCTCCCAGCTGATGAATTTCGTGGATCGAGTAAACAAATTTTCCTAATCTTTCTGTTCAAGCGCCATCTAC | 0.41
GATGATTGTTCTCCCAGCTGATGAATTAGGCCCTTCGAGTAAACAAATTTTCCTAATCTTTCTGTTCAAGCGCCATCTAC | 0.879
GATGATTGTTCTCCCAGCTGATGAATTCGTTCTTTCGAGTAAACAAATTTTCCTAATCTTTCTGTTCAAGCGCCATCTAC | 0.263
GATGATTGTTCTCCCAGCTGATGAATTTTTGCGTTCGAGTAAACAAATTTTCCTAATCTTTCTGTTCAAGCGCCATCTAC | 2.04
GATGATTGTTCTCCCAGCTGATGAATTATAAGCATCGAGTAAACAAATTTTCCTAATCTTTCTGTTCAAGCGCCATCTAC | 1.08
GATGATTGTTCTCCCAGCTGATGAATTTGTATTATCGAGTAAACAAATTTTCCTAATCTTTCTGTTCAAGCGCCATCTAC | 5.3
GATGATTGTTCTCCCAGCTGATGAATTACCCCGCTCGAGTAAACAAATTTTCCTAATCTTTCTGTTCAAGCGCCATCTAC | 0.235
GATGATTGTTCTCCCAGCTGATGAATTGCGTTTCTCGAGTAAACAAATTTTCCTAATCTTTCTGTTCAAGCGCCATCTAC | 1.96
GATGATTGTTCTCCCAGCTGATGAATTGTGCATGTCGAGTAAACAAATTTTCCTAATCTTTCTGTTCAAGCGCCATCTAC | 7.05
GATGATTGTTCTCCCAGCTGATGAATTTAATTGATCGAGTAAACAAATTTTCCTAATCTTTCTGTTCAAGCGCCATCTAC | 1.66
GATGATTGTTCTCCCAGCTGATGAATTGTTCCATTCGAGTAAACAAATTTTCCTAATCTTTCTGTTCAAGCGCCATCTAC | 0.579
GATGATTGTTCTCCCAGCTGATGAATTTGAAACGTCGAGTAAACAAATTTTCCTAATCTTTCTGTTCAAGCGCCATCTAC | 0.266
GATGATTGTTCTCCCAGCTGATGAATTTAAGTTATCGAGTAAACAAATTTTCCTAATCTTTCTGTTCAAGCGCCATCTAC | 0.821
GATGATTGTTCTCCCAGCTGATGAATTCGAATACTCGAGTAAACAAATTTTCCTAATCTTTCTGTTCAAGCGCCATCTAC | 0.672
GATGATTGTTCTCCCAGCTGATGAATTTGTCTACTCGAGTAAACAAATTTTCCTAATCTTTCTGTTCAAGCGCCATCTAC | 5.77
GATGATTGTTCTCCCAGCTGATGAATTTATATGGTCGAGTAAACAAATTTTCCTAATCTTTCTGTTCAAGCGCCATCTAC | 1.94
GATGATTGTTCTCCCAGCTGATGAATTAAGCTGGTCGAGTAAACAAATTTTCCTAATCTTTCTGTTCAAGCGCCATCTAC | 0.569
